These results are taken from ChEMBL document CHEMBL4888484, “Replenishing the malaria drug discovery pipeline: Screening and hit evaluation of the MMV Hit Generation Library 1 (HGL1) against asexual blood stage Plasmodium falciparum ,using a nano luciferase reporter read-out” (2022).

SMILES strings stand for the structures. Hit rate of the full screen: of about 150,000 compounds, about 540 (0.36%) showed an effect of 50% or more. The list shows a part of the results.

This experiment has as its system Plasmodium falciparum. Description: Primary screen in NF54 nanoGlo assay, in single point, at 2uM, 72h; a lower Z score goes with more inhibition. The format is functional, Erythrocyte. The following applies: timepoint 72 hour.
Take `CCn1c2c(c(=O)n3ncc(C(=O)NCC4CCN(CCc5ccc(OC)cc5)CC4)c13)CN(Cc1ccc(OC)cc1)CC2`: the “% Inhibition” value is listed as -39% and the Z score was found to be 3.59.
For `CC(C)c1nc(CC(=O)NC[C@H]2CCCO2)cs1` the same measures were -6% and 0.79.
In the same order, the values of `O=C(c1cc2ccccc2o1)N(C(=O)N1CCCCC1)c1ccc(Cl)cc1` are -4% and 0.55.
In the same order, the values of `O=C(NCC1CC1)C1CCC(c2ccccc2)N(C(=O)Cc2cccs2)C1` (configuration not stated) are -9% and 0.99.
For the compound `O=C(c1cccc2ccccc12)[C@H]1CCCN(Cc2nc3ccccc3[nH]2)C1`, the “% Inhibition” value is recorded as -8% and the Z score is given as 0.76.
Turning to `O=C(Cc1ccccn1)NCc1cccnc1N1CCC[C@H](O)C1`, the “% Inhibition” value stood at 3% and the Z score was -0.36.
For `CCCn1nccc1-c1ccc(CN(C)C)cn1` the same measures were -5% and 0.92.
Take `CCc1cc([C@@H]2CCCN2C(=O)Nc2cc(C)ccc2OC)on1`: the “% Inhibition” value was -7% and the Z score was 0.96.
For `O=S(=O)(N[C@H]1CCOC[C@@H]1O)c1cc(F)ccc1F` the same measures were 10% and -1.38.
In the same order, the values of `N#Cc1ccc(OC[C@H]2C[C@@H](O)C2)c(F)c1` are 5% and -0.93.
In the same order, the values of `Cc1cc(NC(=O)[C@H](C)OC(=O)CCc2ccccc2)on1` are 0% and -0.01.
With `CCOc1ccc(CNC(=O)Cn2c(CC)nc3onc(C)c3c2=O)cc1OC`, the “% Inhibition” value is on record as 0% and the Z score is recorded as -0.01.
For `CC1CC[S+]([O-])CCN1Cc1sccc1Cl` (configuration not stated) the same measures were 17% and -2.43.
In the same order, the values of `CCCC[C@H]1CN(c2cccc(-c3ccccc3)c2)C(=O)CN1C(=O)C(N)=O` are -18% and 1.64.
For `CCCC(=O)N1CCN(c2cc(Oc3ccccc3F)ncn2)C[C@@H]1C` the same measures were -4% and 0.59.
For `Cn1cccc1[C@H](CNS(=O)(=O)c1cccs1)N1CCCC1`, the “% Inhibition” value was -11% and the Z score was found to be 1.89.
For `Cc1ccc(O[C@H]2CCOC[C@H]2NC(=O)c2cscn2)cn1` the same measures were -3% and 0.61.
In the same order, the values of `CCOC(=O)c1cnn(-c2cc(C)ccc2C)c1CN1CCN(CCO)CC1` are -4% and 0.6.
In the same order, the values of `CCOc1cc(N2CCO[C@@H](CN3CCOCC3)C2)ncn1` are -7% and 0.68.
`COCCC(=O)N1CCN(Cc2ccc(Br)o2)CC1`: the “% Inhibition” value is listed as -5% and the Z score was found to be 0.7.
For `Cc1ccc(CN(Cc2ccccn2)C[C@H]2CCCNC2)s1` the same measures were 6% and -0.86.
Turning to `Cc1nnc2n1CCN(Cc1c[nH]nc1-c1ccc(F)cc1)[C@H]2C(=O)N(C)C`, the “% Inhibition” value was -6% and the Z score is recorded as 0.74.
`Cc1nonc1CN1C[C@H]2CCC[C@@H](C1)N(C)C2=O`: the “% Inhibition” value is 15% and the Z score is reported as -2.14.
In the same order, the values of `Cc1ccccc1N1C(=O)CN(C(=O)c2onc3c2CCCC3)C[C@@H]1C` are -2% and 0.3.
In the same order, the values of `O=C1C[C@H](C(=O)N2CCn3c2nc2ccccc23)CN1c1cccc(Br)c1` are -10% and 1.36.
For the compound `CC12N=NCC1C(=O)N(c1cccc(Cl)c1)C2=O` (configuration not stated), the “% Inhibition” value is -11% and the Z score amounted to 1.74.
For `O=C(Nc1cccc(-c2cccs2)c1)NC(C(=O)O)C1CCCOC1` (configuration not stated) the same measures were 10% and -1.27.
For `O=C(CCc1ncccn1)NC[C@@]12CCC[C@@H]1OCC2` the same measures were -5% and 0.97.
In the same order, the values of `CN(Cc1ccccc1)c1cnn(CCCO)c(=O)c1` are -3% and 0.64.
With `CCn1nc(-c2ccncc2)nc1-c1cc(C)nc(C)n1`, the “% Inhibition” value is -19% and the Z score amounted to 2.25.
For `COc1cccc(C(=O)N2CCN(C(=O)N3CCc4ccccc43)CC2)c1` the same measures were -2% and 0.22.
For `O=S(=O)(c1ccc(-c2noc(-c3ccc(F)c(Cl)c3)n2)cc1)N1CCCCC1` the same measures were -3% and 0.49.
For the compound `CCOc1ncccc1C(=O)N[C@H]1CCN(Cc2c(C)noc2C)C[C@@H]1O`, the “% Inhibition” value is given as -15% and the Z score stood at 1.42.
In the same order, the values of `C[C@H]1OCCN(C(=O)Cc2noc3ccccc23)[C@@H]1C(N)=O` are -8% and 0.93.
In the same order, the values of `CCc1nc([C@H](C)NC2CCC3(CC2)OCCO3)cs1` are -3% and 0.35.
In the same order, the values of `O=C(Cc1ccccc1Cl)N1CCCOCC1` are -8% and 0.95.
With `COc1ccc(F)c(CN2CCC([C@H](Cc3ccc(F)cc3F)N(C)C(=O)c3ccco3)CC2)c1`, the “% Inhibition” value is -11% and the Z score was 1.34.
For `CC(C)N(CCO)C(=O)c1cn(C[C@H]2COc3ccccc3O2)nn1` the same measures were -8% and 1.19.
For `Cc1ccc2c(c1)CN(Cc1cn(CC(N)=O)nn1)CCO2` the same measures were -2% and 0.21.
For `COc1ccc2nc(OC3CCNCC3)sc2c1` the same measures were 19% and -2.41.
With `Cc1ccc(CC2(NC(=O)[C@@H](c3cccc(F)c3)N(C)C)CC2)cc1`, the “% Inhibition” value is listed as -6% and the Z score worked out at 1.14.
In the same order, the values of `C[C@@H](CN(C)c1c(Cl)cccc1C#N)C(=O)O` are -17% and 1.7.
In the same order, the values of `Nc1nnc(CNC(=O)[C@H]2CCN(c3ccc(C(F)(F)F)cn3)C2)s1` are -12% and 1.5.
For `COC1(CNC(=O)c2oc(Br)cc2C)CCCCC1` the same measures were -6% and 1.16.
Turning to `Cn1ccnc1-c1csc(NC(=O)C2CC3C=CC2C3)n1` (configuration not stated), the “% Inhibition” value is reported as -7% and the Z score turned out to be 0.66.
In the same order, the values of `Cc1cccc(C(=O)N2CCCc3cc(C(=O)N4CCCC4)ccc32)c1` are -10% and 1.57.
In the same order, the values of `COC[C@H]1CCCCN1C(=O)CCc1ccnn1C` are -12% and 1.6.
For `O=C(O)c1cc(NS(=O)(=O)c2ccc(F)cc2)ccc1N1CCN(Cc2ccccc2F)CC1` the same measures were -9% and 1.67.
As for `CCN(CCNC(=O)c1csc2c1CCCCC2)c1ccccc1`, the “% Inhibition” value is reported as -8% and the Z score amounted to 1.04.
In the same order, the values of `CCCc1nnc(NC(=O)N(C)Cc2nnc(C)o2)[nH]1` are -10% and 1.54.
For `Cc1cc(N2CCN(S(=O)(=O)c3ccc(F)cc3)CC2)nc(N2CCOCC2)n1` the same measures were -7% and 0.93.
In the same order, the values of `COC[C@H](C)S(=O)(=O)NCc1noc(-c2ccccc2)n1` are 16% and -1.97.
On to `Cc1noc(C)c1Cc1nc(CC(N)=O)nn1-c1ccc2c(c1)CCC2`, for which the “% Inhibition” value is on record as -14% and the Z score is 1.9.
For `Cc1noc(C)c1[C@@H](C)CC(=O)NCc1ccn2ccnc2c1` the same measures were -17% and 2.05.
For `CNc1ccc(C(=O)N(Cc2ccnc(OC(C)C)c2)C2CC2)cn1` the same measures were -9% and 1.8.
As to `CCC(C)(C)NC(=O)c1csc(-c2ccc(N3CCCC3)nc2)n1`, the “% Inhibition” value was -18% and the Z score came to 2.05.
As to `COc1c2c(cc3c1[C@H](CC(=O)Cc1ccccc1)[N+](C)(C)CC3)OCO2`, the “% Inhibition” value is recorded as -1% and the Z score is 0.08.
For `CCCc1nccnc1NC(=O)[C@H]1CC(C)(C)OC1(C)C` the same measures were -3% and 0.38.
`CCc1nn(-c2ccccc2)c2ncc3cc(OC)c(OC)cc3c12`: the “% Inhibition” value is reported as -4% and the Z score turned out to be 0.5.
Regarding `CC(C)C(=O)Nc1cnc(-c2cccnc2)nc1`, the “% Inhibition” value is on record as -15% and the Z score was determined as 2.46.
For `CCN(CC)C(=O)c1cc(Br)c[nH]1` the same measures were 5% and -0.68.
For `O=C(Cc1c(Cl)cccc1Cl)N1CC[C@]2(CCOC2)C1` the same measures were 39% and -5.23.
For `C=C(C)C[C@H](C)C(=O)NCc1ccc(OCC(F)(F)F)nn1` the same measures were -9% and 1.57.
On to `CC(NC(=O)NC(CCO)C(C)(C)C)C1CCOC1` (configuration not stated), for which the “% Inhibition” value is listed as -24% and the Z score was found to be 2.31.
Turning to `COc1ccc(CC(=O)N[C@H]2CCc3nnn(C)c3C2)c(C)c1`, the “% Inhibition” value is on record as -9% and the Z score was 1.44.
Take `COc1ccccc1CC(=O)Nc1cc(N2CCC(C)CC2)ncn1`: the “% Inhibition” value is -15% and the Z score came to 2.91.
As for `Cc1ccc(CNC(=O)C(=O)NC2CCCCC2)cc1`, the “% Inhibition” value was -9% and the Z score was 1.17.
In the same order, the values of `CC(C)(C)c1ccc(C(C)(C)C)c(NC(=O)N[C@H]2CCCNC2=O)c1` are -5% and 1.12.
In the same order, the values of `C=C(C)CN(CC)[C@@H](C)CCc1ccc(OC)cc1` are 4% and -0.58.
In the same order, the values of `CCC(C)(C)NC(=O)CN(C)Cc1nc(C)c[nH]1` are -14% and 1.94.
As for `CC(NC(=O)C1CCC(=O)NC1)c1ccc2c(c1)OCCO2` (configuration not stated), the “% Inhibition” value is recorded as -12% and the Z score is recorded as 1.06.
For `OC12CC(Cc3cccnc31)c1ccccc12` (configuration not stated) the same measures were 7% and -1.14.
As for `Cc1ccc2[nH]nc(CNC(=O)CCN3CCCCC3)c2c1`, the “% Inhibition” value was -3% and the Z score is recorded as 0.61.
For `Cc1cccc(-n2cc(-c3ccnc(N[C@@H](C)Cc4ccncc4)n3)cn2)c1` the same measures were -14% and 2.61.
Regarding `CN(Cc1ccco1)C(=O)CCCc1c[nH]c2ccccc12`, the “% Inhibition” value is on record as -5% and the Z score was 0.71.
For `N#C[C@@H](NC(=O)CCCc1ccccn1)c1c(F)cccc1Cl` the same measures were 1% and -0.1.
Regarding `C[C@H](NC(=O)Cn1nnnc1CNC(=O)OC(C)(C)C)c1ccc(Cl)c(Cl)c1`, the “% Inhibition” value is listed as -1% and the Z score was found to be 0.24.
Take `CCOC(=O)c1ccc(NC(=O)[C@H](CC)N2C(=O)CCn3nc(C)cc32)cc1`: the “% Inhibition” value was 0% and the Z score was 0.05.
In the case of `CC(C)c1nc2ccc(NC(=O)N[C@H]3CCCOCC3)cc2s1`, the “% Inhibition” value was found to be 32% and the Z score is -3.67.
In the same order, the values of `O=C(c1ccncc1F)N1CCC(c2nccn2Cc2ccccc2)CC1` are -2% and 0.23.
For `CC(C)(C)C(=O)NCC(=O)N1CCCO1` the same measures were -10% and 1.11.
For `COc1cccc(NC(=O)[C@H]2CCCN(C(=O)c3nnc(C(=O)Nc4ccc5c(c4)OCO5)s3)C2)c1` the same measures were -43% and 3.77.
Consider `Cc1cccnc1[C@H](C)NC(=O)CCN(C)S(C)(=O)=O`, for which the “% Inhibition” value was 1% and the Z score is recorded as -0.14.
In the same order, the values of `COc1ccc(Cl)cc1N1C(=O)[C@@H]2[C@H](CC(N)=O)N[C@]3(C(=O)Nc4ccccc43)[C@@H]2C1=O` are 1% and -0.11.
In the same order, the values of `Cc1csc2c(N3CC[C@H](O)C3(C)C)ncnc12` are -3% and 0.51.
For `Cc1sc2ncnc(N3CCC[C@H](C)C3)c2c1C(=O)Nc1cccc(F)c1` the same measures were 1% and -0.14.
